{"source": "the supplement of paper PMC4604168 (melanoma cell lines)", "assay_in_all_cases": "cell count relative to DMSO control; melanoma cells; higher = more viable cells", "conditions_in_all_cases": "library dose: low library concentration; 72 h", "key": {"WM115": {"tested_on": "WM115"}, "WM1716": {"tested_on": "WM1716"}, "WM1745": {"tested_on": "WM1745"}, "WM3526": {"tested_on": "WM3526"}, "WM3619": {"tested_on": "WM3619"}, "WM451Lu": {"tested_on": "WM451Lu"}}, "note": "The other results are listed elsewhere or left out. Single values are uncertain, as repeats are few or missing.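 Further: cell number obtained by counting DAPI-stained nuclei in high-throughput microscope images with image analysis software, screen run in 1,536-well plates.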"}
{"compound": "N.N.[Cl][Pt][Cl]", "note": "[cisplatin] + Nc1cccc2c1CN(C1CCC(=O)NC1=O)C2=O [lenalidomide] (first compound 1.6 µM, partner dose 1 µM)", "values": [{"measurement": "cell count", "setting": "WM115", "value": 93, "unit": "%"}, {"measurement": "cell count", "setting": "WM1716", "value": 111, "unit": "%"}, {"measurement": "cell count", "setting": "WM1745", "value": 94.5, "unit": "%"}, {"measurement": "cell count", "setting": "WM3526", "value": 103, "unit": "%"}, {"measurement": "cell count", "setting": "WM3619", "value": 82.4, "unit": "%"}, {"measurement": "cell count", "setting": "WM451Lu", "value": 103, "unit": "%"}]}
{"compound": "Cn1cc(C2=C(c3cn(C4CCN(Cc5ccccn5)CC4)c4ccccc34)C(=O)NC2=O)c2ccccc21", "note": "[Enzastaurin] + NC(=O)Nc1cc(-c2cccc(F)c2)sc1C(=O)N[C@H]1CCCNC1 [AZD7762] (first compound 0.8 µM, partner dose 0.02 µM)", "values": [{"measurement": "cell count", "setting": "WM115", "value": 97.8, "unit": "%"}, {"measurement": "cell count", "setting": "WM1716", "value": 84.6, "unit": "%"}, {"measurement": "cell count", "setting": "WM1745", "value": 105, "unit": "%"}, {"measurement": "cell count", "setting": "WM3526", "value": 78.1, "unit": "%"}, {"measurement": "cell count", "setting": "WM3619", "value": 82.6, "unit": "%"}, {"measurement": "cell count", "setting": "WM451Lu", "value": 91.7, "unit": "%"}]}
{"compound": "N.N.[Cl][Pt][Cl]", "note": "[cisplatin] + OCCn1cc(-c2cnc3nnn(Cc4ccc5ncccc5c4)c3n2)cn1 [PF04217903] (first compound 1.6 µM, partner dose 1 µM)", "values": [{"measurement": "cell count", "setting": "WM115", "value": 94.1, "unit": "%"}, {"measurement": "cell count", "setting": "WM1716", "value": 97.8, "unit": "%"}, {"measurement": "cell count", "setting": "WM1745", "value": 86.8, "unit": "%"}, {"measurement": "cell count", "setting": "WM3526", "value": 91.7, "unit": "%"}, {"measurement": "cell count", "setting": "WM3619", "value": 91.8, "unit": "%"}, {"measurement": "cell count", "setting": "WM451Lu", "value": 103, "unit": "%"}]}
{"compound": "N.N.[Cl][Pt][Cl]", "note": "[cisplatin] + COC(=O)c1sccc1S(=O)(=O)Nc1ccc(Nc2ccccc2)cc1OC [GSK0660] (first compound 1.6 µM, partner dose 1 µM)", "values": [{"measurement": "cell count", "setting": "WM115", "value": 109, "unit": "%"}, {"measurement": "cell count", "setting": "WM1716", "value": 112, "unit": "%"}, {"measurement": "cell count", "setting": "WM1745", "value": 102, "unit": "%"}, {"measurement": "cell count", "setting": "WM3526", "value": 125, "unit": "%"}, {"measurement": "cell count", "setting": "WM3619", "value": 66.6, "unit": "%"}, {"measurement": "cell count", "setting": "WM451Lu", "value": 114, "unit": "%"}]}
{"compound": "Cn1cc(C2=C(c3cn(C4CCN(Cc5ccccn5)CC4)c4ccccc34)C(=O)NC2=O)c2ccccc21", "note": "[Enzastaurin] + O=C(Oc1ccc([N+](=O)[O-])cc1)N1CCC(C(O)(c2ccc3c(c2)OCO3)c2ccc3c(c2)OCO3)CC1 [JZL184] (first compound 0.8 µM, partner dose 1 µM)", "values": [{"measurement": "cell count", "setting": "WM115", "value": 119, "unit": "%"}, {"measurement": "cell count", "setting": "WM1716", "value": 102, "unit": "%"}, {"measurement": "cell count", "setting": "WM1745", "value": 94.8, "unit": "%"}, {"measurement": "cell count", "setting": "WM3526", "value": 98.8, "unit": "%"}, {"measurement": "cell count", "setting": "WM3619", "value": 88.5, "unit": "%"}, {"measurement": "cell count", "setting": "WM451Lu", "value": 110, "unit": "%"}]}
{"compound": "C[As](C)SC[C@H](NC(=O)CC[C@H](N)C(=O)O)C(=O)NCC(=O)O", "note": "[Darinaparsin] + COc1cc2c(Oc3ccc4[nH]c(C)cc4c3F)ncnc2cc1OCCCN1CCCC1 [cediranib] (first compound 0.4 µM, partner dose 0.4 µM)", "values": [{"measurement": "cell count", "setting": "WM115", "value": 102, "unit": "%"}, {"measurement": "cell count", "setting": "WM1716", "value": 116, "unit": "%"}, {"measurement": "cell count", "setting": "WM1745", "value": 93.6, "unit": "%"}, {"measurement": "cell count", "setting": "WM3526", "value": 110, "unit": "%"}, {"measurement": "cell count", "setting": "WM3619", "value": 117, "unit": "%"}, {"measurement": "cell count", "setting": "WM451Lu", "value": 97.9, "unit": "%"}]}
{"compound": "Cn1cc(C2=C(c3cn(C4CCN(Cc5ccccn5)CC4)c4ccccc34)C(=O)NC2=O)c2ccccc21", "note": "[Enzastaurin] + CO[C@@H]1[C@H](N(C)C(=O)c2ccccc2)C[C@H]2O[C@]1(C)n1c3ccccc3c3c4c(c5c6ccccc6n2c5c31)C(=O)NC4 [Midostaurin] (first compound 0.8 µM, partner dose 0.08 µM)", "values": [{"measurement": "cell count", "setting": "WM115", "value": 81.7, "unit": "%"}, {"measurement": "cell count", "setting": "WM1716", "value": 63.8, "unit": "%"}, {"measurement": "cell count", "setting": "WM1745", "value": 73, "unit": "%"}, {"measurement": "cell count", "setting": "WM3526", "value": 89.2, "unit": "%"}, {"measurement": "cell count", "setting": "WM3619", "value": 120, "unit": "%"}, {"measurement": "cell count", "setting": "WM451Lu", "value": 71.1, "unit": "%"}]}
{"compound": "C[As](C)SC[C@H](NC(=O)CC[C@H](N)C(=O)O)C(=O)NCC(=O)O", "note": "[Darinaparsin] + CC1(C)NC(=O)N(c2ccc([N+](=O)[O-])c(C(F)(F)F)c2)C1=O [nilutamide] (first compound 0.4 µM, partner dose 1 µM)", "values": [{"measurement": "cell count", "setting": "WM115", "value": 95.9, "unit": "%"}, {"measurement": "cell count", "setting": "WM1716", "value": 97, "unit": "%"}, {"measurement": "cell count", "setting": "WM1745", "value": 98.7, "unit": "%"}, {"measurement": "cell count", "setting": "WM3526", "value": 91, "unit": "%"}, {"measurement": "cell count", "setting": "WM3619", "value": 115, "unit": "%"}, {"measurement": "cell count", "setting": "WM451Lu", "value": 85.8, "unit": "%"}]}
{"compound": "C[As](C)SC[C@H](NC(=O)CC[C@H](N)C(=O)O)C(=O)NCC(=O)O", "note": "[Darinaparsin] + COc1cc(N2CCC(N3CCN(C)CC3)CC2)ccc1Nc1ncc(Cl)c(Nc2ccccc2S(=O)(=O)C(C)C)n1 [NVP-TAE684] (first compound 0.4 µM, partner dose 0.08 µM)", "values": [{"measurement": "cell count", "setting": "WM115", "value": 88.2, "unit": "%"}, {"measurement": "cell count", "setting": "WM1716", "value": 93.2, "unit": "%"}, {"measurement": "cell count", "setting": "WM1745", "value": 78.7, "unit": "%"}, {"measurement": "cell count", "setting": "WM3526", "value": 82.1, "unit": "%"}, {"measurement": "cell count", "setting": "WM3619", "value": 58.3, "unit": "%"}, {"measurement": "cell count", "setting": "WM451Lu", "value": 98.3, "unit": "%"}]}
{"compound": "C[C@]12O[C@H](C[C@]1(O)CO)n1c3ccccc3c3c4c(c5c6ccccc6n2c5c31)CNC4=O", "note": "[Lestaurtinib] + COc1ccc(Cl)c(Nc2nc3ccccc3nc2NS(=O)(=O)c2cccc(NC(=O)C(C)(C)N)c2)c1 [XL147] (first compound 0.004 µM, partner dose 0.8 µM)", "values": [{"measurement": "cell count", "setting": "WM115", "value": 93.4, "unit": "%"}, {"measurement": "cell count", "setting": "WM1716", "value": 103, "unit": "%"}, {"measurement": "cell count", "setting": "WM1745", "value": 101, "unit": "%"}, {"measurement": "cell count", "setting": "WM3526", "value": 97, "unit": "%"}, {"measurement": "cell count", "setting": "WM3619", "value": 74.9, "unit": "%"}, {"measurement": "cell count", "setting": "WM451Lu", "value": 117, "unit": "%"}]}
